From PubChem BioAssay AID463173 (ICCB-Longwood Screening Facility, Harvard Medical School, 2010) come the findings set out here.

Structures are written as SMILES. In all, about 52,000 compounds went through this assay and about 4,300 (8.3%) were called active. Cut-off read from the data, not from the text of the source: active = survival mostly below about 52% (no sharp cut-off); inactive = mostly above about 56%. Some of the results follow.

This test concerns DeltatarO mutant. The test is described as follows: S. aureus survival, RN4220 and DeltatarO strains – OD600, teichoic acid synthesis inhibitors, primary screen (AID 463173). Conditions: S. aureus RN4220 wild type/DeltatarO growth, OD600, 18 h, stronger effect = lower value, screened at 18.75 µg/mL (by protocol).
With `Cc1c(Cl)cccc1NC(=O)C(C)n1nnc2sc3c(c2c1=O)CCCC3` (centres undefined), the survival was inactive: 80%.

For the compound `Cc1c(C)n(C)c2ccc(C(=O)N3CCN(c4ccccc4)CC3)cc12`, the survival is inactive: 74%.

Regarding `CCCCOc1ccc(CNC(=O)CCCN2C(=O)CSc3c2c(C)nn3-c2ccccc2)cc1`, the survival is inactive: 72%.

As for `Cc1ccc2c(=O)cc(C(=O)Nc3ccc(S(=O)(=O)N4CCCCCC4)cc3)oc2c1C`, the survival was inactive: 64%.

Consider `Cc1cc(C)cc(NC(=O)Cn2c(=O)c3ccccc3n3nncc23)c1`, for which the survival is inactive: 83%.

For the compound `O=C(Nc1nc2ccc(F)cc2s1)c1nc(S(=O)(=O)Cc2ccccc2)ncc1Cl`, the survival was active: 17%.

Take `CCOC(=O)c1c(NC(C)=O)c2c3c(sc2n1Cc1nc(-c2ccccc2C)oc1C)CCCC3`: the survival is inactive: 97%.

Consider `COc1ccc(NC(=O)CSc2nc3c(oc4ccccc43)c(=O)n2-c2ccc(C)c(C)c2)cc1`, for which the survival is inactive: 82%.

`O=C(c1ccc2c(c1)N(Cc1ccc(Cl)cc1)C(=O)c1ccccc1S2(=O)=O)N1CCCCC1`: the survival was inactive: 121%.

In the case of `COc1ccc(CNCCC2(O)CC(C)N(C)CC2C)cc1OC` (centres undefined), the survival was inactive: 94%.

Consider `O=C(CN1C(=O)CCSc2ccccc21)Nc1ccccc1F`, for which the survival was inactive: 85%.

With `CCOc1ccc(CCNC(=O)C2COc3ccccc3C2)cc1OCC` (centres undefined), the survival is active: 0%.

As to `Cc1ccc(-n2c(=O)c3oc4ccccc4c3n(Cc3ccccc3F)c2=O)cc1C`, the survival is inactive: 104%.

For `O=C(Cn1c(=O)n(-c2ccc(F)c(Cl)c2)c(=O)c2sc3ccccc3c21)NC1CCCC1`, the survival is inactive: 93%.

With `CCC(C)NC(=O)C(=O)Nc1c2c(nn1-c1ccccc1)CS(=O)(=O)C2` (centres undefined), the survival is inactive: 82%.

Take `CN(C)c1cc(Nc2ccc(Cl)cc2)c2c3c(onc13)-c1ccccc1C2=O`: the survival was inactive: 91%.

In the case of `COc1ccc(CNC(=O)c2cc3c(s2)-c2ccccc2OC3)cc1`, the survival is inactive: 64%.

As for `Cc1ccccc1OCc1nnc(SCc2cc(=O)c3ccccc3[nH]2)n1C`, the survival was inactive: 97%.

With `COc1ccc(N(CC(=O)NCCc2cccc(C)c2)S(=O)(=O)c2c(C)nn(C)c2C)cc1`, the survival is inactive: 59%.

Turning to `COc1ccccc1N1CCN(C(CNC(=O)C(=O)NCCCN(C)C)c2cccnc2)CC1` (centres undefined), the survival is active: 61%.

As to `CCOC(=O)C1=C(CS(=O)(=O)c2c(C)cc(C)cc2C)NC(=O)NC1c1cccc(OC)c1` (centres undefined), the survival was inactive: 58%.

In the case of `Cc1ccn(C(=O)c2ccc(NC(=O)C3CCCCC3)cc2)n1`, the survival is inactive: 96%.

Take `O=C1CC(c2ccccc2C(F)(F)F)c2c(c3ccccc3[nH]c2=O)O1` (centres undefined): the survival is inactive: 82%.

With `N#Cc1c(NC(=O)c2cc3nc(-c4ccc(Br)cc4)cc(C(F)(F)F)n3n2)sc2c1CCCC2`, the survival was active: 32%.
